{"source": "PubChem BioAssay AID686978", "about": "(National Center for Advancing Translational Sciences (NCATS), 2013)", "note": "Several values for one entry are separate records, joined by “and”; a condition that tells them apart may be missing. Equal values may be shown once. Screen size: about 420,000 compounds; about 64,000 (15%) were called active. The inconclusive results got no clear call from the source; some entries with a clear call stand among them for comparison. Calls follow the shape of the dose curve; as a rule, active = well fitted inhibition curve with a large enough effect; inconclusive = small, poorly fitted or top-dose-only effect; inactive = flat fitted curve, though single readings scatter. Potencies beside an inconclusive call are fits to weak or partial responses and may not hold up. % is scaled to controls: 0 for no effect and ±100 for the full control effect; potency is read from the fitted curve at half-maximal effect; tags tell the direction and shape of the fitted curve.", "data": [{"assay": "qHTS for Inhibitors of human tyrosyl-DNA phosphodiesterase 1 (TDP1): qHTS in cells in absence of CPT; also: nearly all actives have a fitted effect of over 55% in size", "conditions": "DT40 Tdp1-/- hTDP1 cells, no CPT, ATP luminescence, 48 h; activity change, negative = growth inhibition: at 46.2 µM (top of the series) unless noted", "how_it_was_run": "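A cellular qHTS used chicken DT40 cells lacking endogenous Tdp1 but carrying stably transfected human TDP1. Compounds were applied without camptothecin, and cell growth kinetics were judged by ATP-dependent luminescence after ≥48 hr.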", "values": [{"smiles": "C[n+]1cn(CC(O)COCc2ccccc2)c2ccccc21", "note": "(stereo not drawn)", "Potency": "inconclusive: 18.4 µM [inhibitor, single point]"}, {"smiles": "NC(=S)N/N=C/c1ccc(C23CC4CC(CC(C4)C2)C3)cc1", "Potency": "active: 3.66 µM"}, {"smiles": "COc1ccc2nc(NC(=S)NC(=O)c3ccco3)sc2c1", "Potency": "inconclusive: 29.1 µM [inhibitor, single point]"}, {"smiles": "CCCCCCCCCCCCCCCC[N+](C)(C)CCN(Cc1ccc(OC)cc1)c1ncccn1", "Potency": "active: 2.55 µM"}, {"smiles": "CCOC(=O)c1c(C)[nH]c(CCC(=O)NCCCN2CCN(c3ccc(F)cc3)CC2)c1C", "Potency": "active: 10.3 µM"}, {"smiles": "CC(C)(C)n1nnnc1C(c1cccs1)N(Cc1cccnc1)Cc1ccccc1Cl", "note": "(stereo not drawn)", "Potency": "active: 18.4 µM"}, {"smiles": "CCOC(=O)c1ccccc1NC(=O)Cn1cc(C(=O)c2cccc(OC)c2)c(=O)c2ccc(C)nc21", "activity change, negative = growth inhibition": "inactive: 0.856%"}, {"smiles": "Brc1ccc2nc(C3CCCCC3)c(CC3CCCCC3)n2c1", "activity change, negative = growth inhibition": "inconclusive: -33% [inhibitor]"}, {"smiles": "O=C(Nc1nc(-c2ccc(F)cc2)cs1)c1cnccn1", "activity change, negative = growth inhibition": "inactive: -28.3%"}, {"smiles": "N#CC1=C(N)Oc2cc(O)ccc2C1c1ccccc1", "note": "(stereo not drawn)", "Potency": "inconclusive: 14.6 µM [inhibitor, partial curve, poor fit]"}, {"smiles": "Cc1ccc(CCNC(=O)c2ccc3c(c2)N(Cc2cccc(C)c2)C(=O)c2ccccc2S3(=O)=O)cc1", "activity change, negative = growth inhibition": "inactive: -25.3%"}, {"smiles": "Cc1cc(-c2nn(-c3ccccc3)cc2/C=C2\\SC(N)=NC2=O)ccc1OC(C)C", "Potency": "inconclusive: 25.9 µM [inhibitor, single point]"}, {"smiles": "O=C(COc1ccc(-n2cnnn2)cc1)Nc1cccc(Cl)c1Cl", "activity change, negative = growth inhibition": "inactive: -2.67%"}, {"smiles": "CC(C)c1ccc(NC(=O)c2cc3c(s2)-c2ccccc2SC3)cc1", "Potency": "inconclusive: 23.1 µM [inhibitor, single point]"}, {"smiles": "Cc1cccc(-c2nc(S(=O)(=O)c3ccc(F)cc3)c(N3CCN(c4ccccc4)CC3)o2)c1", "Potency": "inconclusive: 25.9 µM [inhibitor, single point]"}, {"smiles": "CC(C)C#Cc1ccc2c(c1)O[C@@H](CN(C)S(=O)(=O)c1cn(C)cn1)[C@@H](C)CN([C@H](C)CO)S2(=O)=O", "Potency": "inconclusive: 20.6 µM [inhibitor, single point]"}, {"smiles": "CCn1c(/C=C/c2cc(Br)ccc2O)nc2ccccc2c1=O", "Potency": "inconclusive: 20.6 µM [inhibitor, single point]"}, {"smiles": "CC(=O)N1N=C(c2ccccc2)OC1c1cccnc1", "note": "(stereo not drawn)", "activity change, negative = growth inhibition": "inactive: -18.3%"}, {"smiles": "COC[C@@H]1NS(=O)(=O)c2ccc(Br)cc2O[C@H]1c1ccccc1", "Potency": "inconclusive: 18.4 µM [inhibitor, partial curve]"}, {"smiles": "COc1cccc(CNc2nc3cc(-c4cccc(C(F)(F)F)c4)sc3c(=O)n2C)c1OC", "Potency": "inconclusive: 20.6 µM [inhibitor, single point]"}, {"smiles": "CC(=O)Nc1ccc(S(=O)(=O)NC(C)C(=O)OCC(=O)Nc2ccc(F)cc2Cl)cc1", "note": "(stereo not drawn)", "activity change, negative = growth inhibition": "inactive: 9.47%"}, {"smiles": "O=C(NCCCN1CCN(c2ccccc2F)CC1)Nc1ccc(F)cc1", "Potency": "inconclusive: 13 µM [inhibitor, partial curve]"}, {"smiles": "CCN(CC)S(=O)(=O)c1ccc(OC)c(NC(=O)c2cc([N+](=O)[O-])ccc2N2CCOCC2)c1", "Potency": "active: 16.4 µM"}, {"smiles": "O=C(Cn1cnc2c(cnn2-c2ccccc2)c1=O)Nc1cc(S(=O)(=O)N2CCOCC2)ccc1Cl", "Potency": "active: 23.1 µM"}, {"smiles": "CSc1ccccc1OCc1cc(C(=O)N2CCc3c(Cl)cccc3C2)no1", "Potency": "inconclusive: 29.1 µM [inhibitor, single point]"}, {"smiles": "COP(=O)(/C=C/c1ccccc1)C(O)c1ccc(F)cc1", "note": "(stereo not drawn)", "activity change, negative = growth inhibition": "inactive: -15.8%"}, {"smiles": "Cn1cnnc1SCc1ccc(C(=O)N=Nc2c(O)n(Cc3ccc(Cl)cc3)c3ccccc23)cc1", "Potency": "active: 10.3 µM"}, {"smiles": "CCOc1ccccc1C1CC(=O)Nc2cc(OC)c(OC)c(OC)c21", "note": "(stereo not drawn)", "Potency": "inconclusive: 25.9 µM [inhibitor, single point]"}, {"smiles": "Cc1cc(C)nc(Nc2n[nH]c(-c3ccccc3N)n2)n1", "activity change, negative = growth inhibition": "inactive: -26.2%"}, {"smiles": "COc1ccc(OCCOCC(O)CN2CCOCC2)cc1", "note": "(stereo not drawn)", "activity change, negative = growth inhibition": "inactive: 0.565%"}, {"smiles": "O=C(NC1CC1)C1CCN(c2ncnc3c2sc2cccc(F)c23)CC1", "Potency": "active: 16.4 µM"}, {"smiles": "Cc1cc(=O)[nH]c2nnc(SCC(=O)NC(C)(C)C)n12", "activity change, negative = growth inhibition": "inactive: 6.2%"}, {"smiles": "COc1cc2c(cc1OC)C(COc1ccccc1OC)N(C(=O)CC(C)C)CC2", "note": "(stereo not drawn)", "Potency": "active: 18.4 µM"}, {"smiles": "S=C(N/N=C/c1cccc2ccccc12)Nc1cccc(Cl)c1", "Potency": "inconclusive: 16.4 µM [inhibitor, partial curve, poor fit]"}, {"smiles": "Cc1ccccc1NC(=O)c1ccc(CN2CCC(Cc3ccccc3)CC2)cc1", "Potency": "active: 20.6 µM"}, {"smiles": "CC(C)Cn1c(N)c(C(=O)COC(=O)C2CC(=O)N(Cc3ccccc3Cl)C2)c(=O)n(C)c1=O", "note": "(stereo not drawn)", "Potency": "active: 16.4 µM"}, {"smiles": "CCCCn1c(O)c2n(c1=O)Cc1ccccc1N=C2c1ccc(OC)cc1", "Potency": "inconclusive: 32.6 µM [inhibitor, single point]"}, {"smiles": "CC(C)CC(=O)Nc1ccccc1N1CCN(c2ccc(F)cc2)CC1", "Potency": "inconclusive: 25.9 µM [inhibitor, single point]"}, {"smiles": "OC(CNC1CCCC1)COc1ccccc1Br", "note": "(stereo not drawn)", "Potency": "inconclusive: 29.1 µM [inhibitor, single point]"}, {"smiles": "COc1ccccc1C(=O)NCC(=O)NCCCN1CCOCC1", "activity change, negative = growth inhibition": "inactive: -1.41%"}, {"smiles": "Cc1nc(SCC(=O)NC(C)(C#N)C2CC2)c2c(-c3cccs3)csc2n1", "note": "(stereo not drawn)", "Potency": "inconclusive: 23.1 µM [inhibitor, single point]"}, {"smiles": "O=C(NC1CCCC1)C(c1ccccn1)N(Cc1ccc(F)cc1)C(=O)c1csnn1", "note": "(stereo not drawn)", "activity change, negative = growth inhibition": "inactive: 0.486%"}, {"smiles": "CCn1c(CNC(=O)C2CCCCC2)cc2cc(C)ccc21", "Potency": "inconclusive: 10.3 µM [inhibitor, single point]"}, {"smiles": "Cc1cc(OC(=O)c2ccc(C(F)(F)F)cc2)c([N+](=O)[O-])c(=O)[nH]1", "activity change, negative = growth inhibition": "inactive: -9.17%"}, {"smiles": "Cc1c(C(C)C)c(=O)n(-c2ccc(S(=O)(=O)NC(C)C)cc2)n1C", "Potency": "active: 13 µM"}, {"smiles": "Cc1ccc(-c2cc(C(=O)Nc3ccc(S(=O)(=O)Nc4ncccn4)cc3)[nH]n2)c(O)c1C", "Potency": "inconclusive: 29.1 µM [inhibitor, single point]"}, {"smiles": "CCN1CCN(C(=O)c2cc3c(=O)n(C)c4ccccc4c3n2C)CC1", "activity change, negative = growth inhibition": "inactive: -9.44%"}, {"smiles": "Clc1ccc(Cn2ncc3c(N4CCCCC4)ncnc32)cc1", "Potency": "active: 20.6 µM"}, {"smiles": "CCCN(C/C=C\\I)[C@@H]1CCc2cccc(O)c2C1", "Potency": "active: 21.1 µM"}, {"smiles": "COC(=O)c1ccc2nc3c(cc2c1)[C@@H]1CCN2C(=O)CCC[C@H](C3)[C@H]12", "Potency": "inactive"}, {"smiles": "CC(=O)N1CCc2cc(CNS(=O)(=O)c3ccc(F)cc3)ccc21", "activity change, negative = growth inhibition": "inactive: -22.9%"}, {"smiles": "CCN(Cc1ccccc1)S(=O)(=O)c1ccc(C(=O)N(CCCN(C)C)c2nc3cc4c(cc3s2)OCCO4)cc1", "Potency": "inconclusive: 23.1 µM [inhibitor, single point]"}, {"smiles": "O=C1c2cccc(Cl)c2C(=O)N1c1ccccn1", "activity change, negative = growth inhibition": "inactive: -26%"}, {"smiles": "Cn1c(=O)cc(OCC(=O)N2CCC(N3CCCCC3)CC2)c2ccccc21", "activity change, negative = growth inhibition": "inactive: 9.82%"}, {"smiles": "Cc1ccc(Nc2nc(N)nc(CN3CCN(c4ccccc4F)CC3)n2)cc1", "Potency": "inconclusive: 20.6 µM [inhibitor, single point]"}, {"smiles": "COc1ccc(NS(=O)(=O)c2ccc3oc4ccccc4c3c2)cn1", "Potency": "inconclusive: 23.1 µM [inhibitor, partial curve]"}, {"smiles": "OCCCNc1c2c(nc3cc(-c4ccc(Cl)cc4)nn13)CCC2", "Potency": "inconclusive: 29.1 µM [inhibitor, single point]"}, {"smiles": "COc1ccc(-c2csc(C(O)c3ccc(OC)cc3)n2)cc1", "note": "(stereo not drawn)", "Potency": "inconclusive: 23.1 µM [inhibitor, single point]"}, {"smiles": "CC(=O)N1c2ccc(S(=O)(=O)N3CCC(C(=O)NC4CCCC(C)C4C)CC3)cc2CC1C", "note": "(stereo not drawn)", "Potency": "inconclusive: 25.9 µM [inhibitor, single point]"}, {"smiles": "O=S1(=O)CCN2C(c3ccc4c(c3)CCCC4)=CSC2=N1", "activity change, negative = growth inhibition": "inactive: -22.6%"}, {"smiles": "COc1ccc(N2C(=O)CN(Cc3cc(OC)c(OC)c(OC)c3)C2=S)cc1", "Potency": "active: 23.1 µM"}, {"smiles": "CC(C)c1c(C(=O)NCC(C)(C)N2CCOCC2)cnn1-c1nccc(-c2cccs2)n1", "Potency": "inconclusive: 7.31 µM [inhibitor, partial curve]"}, {"smiles": "CC(=O)c1ccc(S(=O)(=O)Nc2cccc(-c3ccc(N4CCOCC4)nn3)c2)cc1", "Potency": "inconclusive: 16.4 µM [inhibitor, partial curve, poor fit]"}, {"smiles": "COCCc1nn2c(=O)cc(COC(=O)c3ccc4c(c3)OCO4)nc2s1", "activity change, negative = growth inhibition": "inactive: -13.8%"}, {"smiles": "Cc1ccc(S(=O)(=O)c2nc(-c3ccccc3F)oc2N2CCCCC2)cc1", "Potency": "active: 14.6 µM"}, {"smiles": "O=C(CN1CCN(C(=O)c2ccccc2)CC1)Nc1ncc(Br)cc1Br", "activity change, negative = growth inhibition": "inactive: -27.6%"}, {"smiles": "O=[N+]([O-])c1cc2c(cc1/C=N\\NS(=O)(=O)c1ccccc1)OCO2", "Potency": "inconclusive: 18.4 µM [inhibitor, partial curve]"}, {"smiles": "Cc1ccc(-c2cc(C(=O)NCc3cnn(C)c3C)c3cc(Br)ccc3n2)cc1", "Potency": "inconclusive: 18.4 µM [inhibitor, single point] and inconclusive: 11.6 µM [inhibitor, partial curve, poor fit]"}, {"smiles": "Brc1ccc(CSc2nnc(-c3cnccn3)n2Cc2ccco2)cc1", "Potency": "active: 14.6 µM"}, {"smiles": "Cc1ccc2cc(/C=N/NC(=O)[C@@H]3CCCN3)c(Cl)nc2c1", "Potency": "inconclusive: 29.1 µM [inhibitor, single point]"}, {"smiles": "CC1(C)OC2C(CO)OC(n3cnc4c(=S)nc[nH]c43)C2O1", "note": "(stereo not drawn)", "activity change, negative = growth inhibition": "inactive: -1.35%"}, {"smiles": "Cc1ccc(NC(=O)c2cc(C(C)(C)C)nn2Cc2ccccc2)cc1", "Potency": "active: 29.1 µM"}, {"smiles": "CC1(C)CC(=Cc2cc(O)ccc2[N+](=O)[O-])C(=O)c2ccccc21", "Potency": "inconclusive: 29.1 µM [inhibitor, single point]"}]}]}
